Reference: ChEMBL document CHEMBL5308541, “MAIP: An Open-Source Tool to Enrich High-Throughput Screening Output and Identify Novel, Druglike Molecules with Antimalarial Activity” (ACS Med Chem Lett, 2023)
Out of some 150,000 compounds screened, about 540 (0.36%) showed an effect of 50% or more. Some of the results follow.

Tested on: Plasmodium falciparum
Test: Primary screen in NF54 nanoGlo assay, in single point, at 2uM, 72h; a lower Z score goes with more inhibition
Format: functional, Erythrocyte
Conditions: timepoint 72 hour

| SMILES | % Inhibition [%] | Z score |
| --- | --- | --- |
| O=C(Cc1c[nH]c2ccccc12)Nc1ccc(-n2cccn2)cc1C(F)(F)F | -5 | 0.73 |
| Brc1cccc2c(-c3ccc4ncccc4c3)n[nH]c12 | -8 | 1.23 |
| Cc1cc(-c2ccc(C(=O)N[C@H]3CCCN(c4cnccn4)C3)cc2)ccn1 | 7 | -1.31 |
| COCCC(=O)NC1COCC1Cc1ccnc2ccccc12 (centres undefined) | 1 | -0.24 |
| CCN(Cc1cncn1C(C)C)CC1CCN(C2CCN(C)CC2)CC1 | 16 | -2.81 |
| CC1CN(c2ccc(Nc3ncnc4c3CCC4)cc2)CC(C)O1 (centres undefined) | -2 | 0.41 |
| CN(Cc1cccc2cnccc12)c1nccc(-c2cccnc2)n1 | -2 | 0.48 |
| COc1ccc(-c2cc(C(F)F)nc(NCc3ccccc3Cl)n2)cc1OC | -3 | 0.54 |
| N#Cc1ccc(NC2CCN(C(=O)c3csc(-c4ccsc4)n3)CC2)nc1 | -9 | 1.94 |
| O=C(COc1ccc2oc3ccccc3c2c1)NCc1ccccc1Cn1ccnc1 | -2 | 0.27 |
| Cc1cc(NC2COCC2N2CCN(C)CC2)n2nc(C)c(C)c2n1 (centres undefined) | -6 | 0.99 |
| CCNc1nc(C)cc(Nc2ccc(NC(=O)Nc3ccc(F)cc3F)cc2)n1 | 96 | -20.77 |
| CCN(C)CCN(C)C(=O)c1ccc(-c2ccc3nccc(O)c3c2)cc1 | -2 | 0.36 |
| CN(Cc1ccccc1F)C(=O)NC[C@@]1(C)CCC(=O)N1 | -8 | 1.15 |
| c1cc(N2CCOCC2)nc(Nc2ccc(N3CCCCC3)cc2)n1 | -7 | 1.11 |
| CC(C)(C)c1cnc(CCC(=O)NC2Cc3ccccc3C2O)o1 (centres undefined) | -3 | 0.53 |
| COCCN1CC[C@H](CNCc2ccc3c(c2)OC(F)(F)O3)C1 | 7 | -1.09 |
| Cc1nc2c(C)cccc2c(O)c1CC[C@H](C)NCCCn1ccnc1C | -7 | 1 |
| O=C(c1ccc2[nH]ncc2c1)N1CC[C@H](Oc2cccnc2N2CCCC2)C1 | -3 | 0.68 |
| Cc1nc2cc(OCc3nc(C(=O)N4CCC(=O)NC[C@@H]4C)co3)ccc2s1 | -3 | 0.48 |
| Cc1ccc(Oc2cccc(C(=O)NCCNc3cc(-n4cccn4)ncn3)c2)nn1 | -6 | 1.27 |

| SMILES | % Inhibition [%] | Z score |
| --- | --- | --- |
| CN1CCN(CC2CN(Cc3nc4ccccc4[nH]3)CC2CO)CC1 (centres undefined) | -11 | 1.82 |
| Cc1cc(NCc2ccnc(O[C@H]3CCOC3)c2)nc(-c2ccncc2)n1 | -6 | 1.04 |
| Cc1ccc2c(c1)c(CNC(=O)CCc1nc3cc(C)c(C)cc3[nH]1)nn2C | -10 | 1.45 |
| COC1CN(C(=O)c2cc(-c3ccccc3)nn2C)CC1Cc1cc(C)no1 (centres undefined) | -6 | 1.31 |
| Cc1nsc(NCc2cc(C(F)(F)F)on2)n1 | -2 | 0.27 |
| CC(C)Oc1cccc(F)c1-c1ccccc1CN1CCNCC1 | -17 | 2.59 |
| O=C(CCC(=O)N1CCCCCC1)NCc1nc2cc(F)ccc2[nH]1 | -8 | 1.3 |
| COc1cnc(-c2nc(-c3ccc(Oc4cccc(N(C)C)c4)cc3)no2)c(F)c1 | -11 | 1.89 |
| O=C(NCCc1c[nH]c2cc(Cl)ccc12)N1CCC[C@@H]1CN1CCOCC1 | -13 | 2.03 |
| CCc1ccc(CN(C)C(=O)C2(C)CCC(C(=O)N(C)C)C2(C)C)nc1 (centres undefined) | 1 | -0.14 |
| CCc1nnc(CNC(=O)c2cnn3ccn(C)c23)o1 | -11 | 2.46 |
| Cc1cc(NCC2(Nc3ccccc3)CCCCC2)c2ccccc2n1 | 17 | -2.51 |
| Cc1[nH]c2ccc(F)cc2c1CC(=O)N1C2CCNCC1CC2 (centres undefined) | 6 | -1.17 |
| Cc1nn(C)c(C)c1CN(CCO)CC(=O)Nc1cccc(F)c1C | -11 | 2.41 |
| C[C@H](Nc1nccc(N2CCOCC2)n1)c1ccc2ccccc2c1 | -5 | 0.93 |
| O=C(Cc1c[nH]c2cc(F)ccc12)Nc1ccc(-c2nnco2)cc1 | -4 | 0.89 |
| CNC(=O)C[C@H](C)N(C)C(=O)c1cccc(-c2cnc3[nH]ccc3c2)c1 | -3 | 0.48 |
| Cc1ccc(CN2CCCN(c3cccnn3)CC2)c(-c2cnn(C)c2)c1 | 1 | -0.18 |
| CC(C)CC(=O)[C@H]1CCCN(C(=O)c2ccc(NCC3CCN(C)CC3)nc2)C1 | -3 | 0.58 |
| CC(=O)N1CCC[C@H](CNc2nccc(-c3c(C)nn(C)c3C)n2)C1 | -3 | 0.4 |
| O=C(CCc1ccsc1)N1CCN(c2ncnc3ccccc23)CC1 | -7 | 1.15 |

| SMILES | % Inhibition [%] | Z score |
| --- | --- | --- |
| NC(=O)CN1CCC(Nc2nc(N)nc3[nH]cnc23)CC1 | 3 | -0.55 |
| CCOc1ccc(C2CN(C(C)=O)C(c3ccc(Cl)cc3)c3[nH]c4ccccc4c32)cc1OC (centres undefined) | -6 | 0.87 |
| c1cc(OCCN2CCCC2)ccc1CN[C@H]1CCCC2(C1)N=N2 | -7 | 1.12 |
| CC1CN(c2ccccc2CN[C@@H](C)C(=O)OC(C)(C)C)CCO1 (some centres undefined) | 0 | 0.05 |
| CC(C)(C)[C@@H]1CN(S(=O)(=O)c2cnn3c2OCCC3)CCO1 | -16 | 3.21 |
| O=C(Oc1ccc2ncccc2c1)C1(c2ccc(F)cc2)CCC1 | -4 | 0.74 |
| c1c(NCCCOC2CCOC2)nc(NCCCOC2CCOC2)nc1C1CC1 (centres undefined) | 12 | -2.68 |
| CCN(CC)CCNC(=O)COc1ccc(-c2ccc3c(c2)OCO3)cc1CN1CCC[C@H](C)C1 | 3 | -0.59 |
| c1ccc(N2CC[C@H](NCc3ccccc3N3CCOCC3)C2)nc1 | 6 | -0.99 |
| CC(C)NS(=O)(=O)c1c[nH]c(C(=O)NC[C@H](C)N2CCN(c3ccccc3)CC2)c1 | -6 | 0.97 |
| O=C1OCCN1c1cccc(Nc2nc3ccccc3o2)c1 | 13 | -2.21 |
| CCc1oc(C(=O)N2CC(O)C(Cc3cc(C)no3)C2)cc1CN1CCCC1 (centres undefined) | 3 | -0.57 |
| Cc1cccc2oc(CNC(=O)c3ccc(N4CCN(C)CC4)cc3)nc12 | -7 | 1 |
| CCc1cc(N2CCC(NCc3nc[nH]c3C)CC2)nc(N2CCOCC2)n1 | -1 | 0.3 |
| COc1ccc([C@@H](NC(=O)Nc2cccc(-n3ccnn3)c2)C2CC2)cn1 | -10 | 2.07 |
| Clc1ccc2cnc(-c3ccccc3OC[C@H]3CCOC3)n2c1 | 4 | -0.61 |
| CCc1cc(N2CCC(NC[C@@H]3C[C@H](F)CN3)CC2)nc(N2CCCC2)n1 | 1 | -0.12 |
| COc1ccc([C@H](CNc2cc(C(F)(F)F)nc3ccccc23)N2CCCC2)cc1 | -4 | 0.63 |
| Cc1cc(-c2ccc(C(=O)N3CCN([C@H]4CCNC4)CC3)cc2)cnc1N | -13 | 2.01 |
| COc1ccc(-c2nc(CC(=O)N[C@H]3CCCc4c3[nH]c3ccccc43)cs2)cc1OC | 3 | -0.56 |
| Cc1nc(C)c(C(=O)NCCNc2ccc(Nc3ccncc3)nn2)s1 | 3 | -0.54 |

| SMILES | % Inhibition [%] | Z score |
| --- | --- | --- |
| Cn1nccc1CN1C[C@@H](F)C[C@H]1CNc1nc2ccccc2[nH]1 | -4 | 0.62 |
| CCn1cc(-c2cccc(C(=O)N[C@@H](C)CN3CCc4ccccc4C3)c2)cn1 | 53 | -10.47 |
| CN1CC(=O)N2C[C@@H](NC(=O)c3cccc(-c4ccc(N)nc4)c3)C[C@H]2C1=O | -16 | 2.42 |
| NC1CCCC2CN(c3ncnc4[nH]ccc34)CC12 (centres undefined) | -9 | 1.83 |
| CN(C[C@H]1CCOC1)c1ncccc1S(=O)(=O)NCC1CC1 | -5 | 0.8 |
| CCn1ccc2ccc(-c3c(-c4ccccc4)ncn3C[C@H](O)COC)cc21 | -3 | 0.58 |
| CCN1CCC[C@@H]1C/N=c1/c(N2CCN(C)CC2)c(O)c1=O | 5 | -1.05 |
| CN(C)Cc1ccccc1NC(=O)c1cccc2c(=O)c3ccccc3[nH]c12 | -2 | 0.38 |
| c1cnc2[nH]cc(CCN3CCNCC3)c2c1 | -4 | 0.76 |
| CC1CCC(C(N)=O)CN1C(=O)COc1ccc(Cl)c2cccnc12 (centres undefined) | 0 | 0 |
| Cc1cc(N(C)C)nc(NCCNS(=O)(=O)c2ccc(OC(F)(F)F)cc2)n1 | 14 | -2.05 |
| CCN(CC)c1ccc(CNC(=O)c2cccc(Nc3ccc(-c4ccccc4)nn3)c2)cc1 | -18 | 3.07 |
| O=C(c1cccc(-c2ccc(-c3cnco3)s2)c1)N1CCCNCC1 | 1 | -0.13 |
| Cc1ccccc1CN1CCCN(C(=O)CN2CCC3C(CCCN3C)C2)CC1 (centres undefined) | 7 | -1.47 |
| Nc1ccc(-c2nc3c(Cl)c(N)c(Cl)cc3[nH]2)cc1Cl | -1 | 0.16 |
| Cc1ccc(C)c(-c2cc3nncn3c(N)n2)c1 | 0 | -0.05 |
| CN1CCc2ccc(S(=O)(=O)Nc3cccc([C@@]4(C)NC(=O)NC4=O)c3)cc21 | -9 | 1.65 |
| O=C(CNc1cccc(Br)c1)Nc1ccccc1Oc1ccccc1 | -10 | 1.81 |
| CN(Cc1cccc2ncccc12)C(=O)c1cnc(Nc2ccccc2)nc1 | -11 | 2.13 |
